The campaign covered roughly 270,000 compounds. About 620 (0.23%) were called active. Inconclusive means that the source gave no clear call. Such entries were picked first, then a sample of the others. The call rests on the fitted dose curve; in most records, active means well fitted inhibition curve with a large enough effect in the polarisation, with a control signal flat (not every such curve was filed as active); inconclusive means small, poorly fitted or top-dose-only effect, or effect the other way, or a change in a side signal; inactive means no such curve, though single readings can be large or run the other way; the % refers to the polarisation. Where the call is inconclusive, the potency comes from a doubtful curve fit. “Side channel” marks fits to a control or component signal instead of the main read-out.
What follows are molecules tested against Menin (Homo sapiens) (UniProt O00255) (assay: qHTS Assay for Inhibitors Targeting the Menin-MLL Interaction in MLL Related Leukemias: Competition With Texas Red Labeled MLL-derived Mutant Peptide). Conditions: fluorescence polarization; FP activity change, negative = inhibition: at 61.6 µM (top of the series).
UniProt O00255, sequence (O00255 whole entry, looked up): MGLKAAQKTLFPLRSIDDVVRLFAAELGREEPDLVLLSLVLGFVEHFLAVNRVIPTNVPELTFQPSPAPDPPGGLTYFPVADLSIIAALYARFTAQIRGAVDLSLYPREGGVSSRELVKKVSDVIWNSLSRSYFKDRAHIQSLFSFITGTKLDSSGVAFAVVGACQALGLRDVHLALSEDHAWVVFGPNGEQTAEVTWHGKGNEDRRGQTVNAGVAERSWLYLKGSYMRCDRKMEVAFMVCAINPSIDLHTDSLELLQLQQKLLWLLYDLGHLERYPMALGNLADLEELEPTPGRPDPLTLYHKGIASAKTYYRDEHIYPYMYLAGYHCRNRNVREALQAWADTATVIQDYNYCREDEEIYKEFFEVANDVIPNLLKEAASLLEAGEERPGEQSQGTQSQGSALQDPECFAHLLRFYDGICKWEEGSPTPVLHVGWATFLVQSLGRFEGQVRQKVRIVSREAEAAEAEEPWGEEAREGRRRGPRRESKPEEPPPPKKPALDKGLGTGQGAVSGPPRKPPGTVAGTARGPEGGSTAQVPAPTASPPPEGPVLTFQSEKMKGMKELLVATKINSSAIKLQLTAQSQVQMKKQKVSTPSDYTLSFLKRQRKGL
`CCc1ccc(NC(=O)CCS(=O)(=O)c2ccc(Br)cc2)cc1` was tested, and the Potency was inconclusive: 28.2 µM [fluorescent, side channel, single point]. With `O=C(COc1ccc(Cl)cc1Cl)Nc1ccccc1NS(=O)(=O)c1cccs1` the Potency was inconclusive: 20 µM [quencher, side channel, partial curve]. For `CCOC(=O)C1=C(C)N=C2c3ccccc3C(=O)C2C1c1ccc(Br)cc1` (centres undefined), the Potency was inconclusive: 11.2 µM [quencher, side channel, partial curve]. `Cc1ccc(S(=O)(=O)N2CCN(c3cnn(-c4ccccc4)c(=O)c3Cl)CC2)cc1` was tested, and the “FP activity change, negative = inhibition” value was inactive: -0.99%. `CCOC(=O)CSc1nc2c(c(=O)[nH]1)C(C)(CC)Cc1ccccc1-2` (centres undefined) was tested, and the Potency was inconclusive: 39.8 µM [fluorescent, single point]. For `COc1ccc(-c2nnc(CSc3nnc(-c4ccncc4)n3C3CCCCC3)o2)cc1OC`, the Potency was inconclusive: 44.7 µM [inhibitor, partial curve]. With `CN(CP(=O)(O)CN(C)S(C)(=O)=O)S(C)(=O)=O` the Potency was inconclusive: 11.2 µM [inhibitor, partial curve, poor fit]. `O=C1C2C3C=CC(C3)C2C(=O)N1CNc1ccc(O)cc1` (centres undefined) was tested, and the Potency was inconclusive: 8.91 µM [inhibitor, partial curve]. `CCOc1ccc(/C=C/C(O)=C2/C(=O)N(C)C3(C)CC2c2ccccc2O3)cc1OC` (centres undefined) was tested, and the Potency was inconclusive: 22.4 µM [fluorescent, side channel, partial curve]. `O=C(c1cc(-c2cccc(Cl)c2)on1)N1CCc2ccccc2C1` was tested, and the Potency was inconclusive: 39.8 µM [fluorescent, side channel, single point]. With `O=C1c2ccccc2C(=O)N1CCCCSc1nc2ccccc2c(=O)n1CCCN1CCOCC1` the Potency was inconclusive: 10 µM [fluorescent, side channel, partial curve]. With `O=C(c1cccc(N2C(=O)C3C4C=CC(C4)C3C2=O)c1)N1CCN(c2ccccc2)CC1` (centres undefined) the Potency was inconclusive: 39.8 µM [fluorescent, side channel, single point]. With `CN(c1ccccc1)S(=O)(=O)c1ccc(C(=O)Nc2nccs2)cc1` the Potency was inconclusive: 2.51 µM [quencher, side channel, full curve, poor fit]. With `Cc1cc(NS(=O)(=O)c2ccc(NC(=O)/C=C/c3c(F)cccc3Cl)cc2)nc(C)n1` the Potency was inconclusive: 14.1 µM [quencher, side channel, partial curve]. For `C=C(Br)Cn1c(CC(C)C)nc2ccccc21`, the Potency was inconclusive: 35.5 µM [fluorescent, side channel, single point]. For `COc1cc(NS(=O)(=O)c2ccc(N/C=C(\C#N)c3nc4cc(Cl)ccc4o3)cc2)nc(OC)n1`, the Potency was inconclusive: 12.6 µM [quencher, side channel, partial curve]. In the case of `CCN1CCN(Cc2c(C(=O)N/N=C(\C)c3ccc(Cl)cc3)nnn2-c2nonc2N)CC1`, the Potency is reported as inconclusive: 2.82 µM [quencher, side channel, full curve, poor fit]. `C=CCOC(=O)C1=C[C@H](c2ccc(Br)cc2)[C@@H](CCCO)[C@H](OCC)O1` was tested, and the Potency was inconclusive: 0.891 µM [fluorescent, side channel, full curve, poor fit]. For `Cc1ccccc1CNC(=O)C1CCCN(c2nnc(C)c3c(C)n(-c4ccccc4)nc23)C1` (centres undefined), the Potency was inconclusive: 2.82 µM [inhibitor, partial curve]. For `C/C(=N\Nc1nc2ccccc2[nH]1)c1ccc(Cl)s1`, the Potency was inconclusive: 8.91 µM [quencher, side channel, partial curve]. `COc1ccc(S(=O)(=O)Nc2ccc(F)c(Cl)c2)cc1OC` was tested, and the Potency was inconclusive: 1.78 µM [quencher, side channel, partial curve]. With `CC(=O)NC(NC(=S)Nc1ccc(N=Nc2ccccc2)cc1)C(Cl)(Cl)Cl` (centres undefined) the Potency was inconclusive: 3.16 µM [quencher, side channel, partial curve]. For `O=S(=O)(c1ccc(C2CCCCC2)cc1)N1CCN(c2ncccn2)CC1`, the Potency was inconclusive: 1.41 µM [inhibitor, full curve, poor fit]. With `CC(C)(C)c1ccc(OCC(=O)NNC(=S)NC(=O)c2ccco2)c(Br)c1` the Potency was inconclusive: 28.2 µM [quencher, side channel, partial curve]. With `Cc1c(Cc2ccccc2)sc(/N=C/c2c(O)ccc3ccccc23)c1C(N)=O` the Potency was inconclusive: 39.8 µM [quencher, side channel, single point]. In the case of `Brc1ccc(-c2cn3c(n2)SCC3)cc1`, the Potency is reported as inconclusive: 35.5 µM [inhibitor, single point]. With `N#Cc1ccc2c(c1)C[C@]1(c3ccsc3)Oc3c(c(=O)oc4ccccc34)C2O1` the Potency was inconclusive: 2.51 µM [quencher, side channel, partial curve]. With `COC(=O)[C@@]1(Cc2ccccc2-c2ccco2)C=C[C@H](C)[C@@H](c2ccccc2)N1C(=O)C(F)(F)F` the “FP activity change, negative = inhibition” value was inactive: 15.6%. `CCOc1ccc(N=Nc2c(=O)[nH]n3c(=O)c4c([nH]c23)CCCC4)cc1` was tested, and the Potency was inconclusive: 17.8 µM [quencher, side channel, single point]. `COc1ccc(NC(=O)/C(C#N)=C/c2ccc(-c3ccc(Cl)c(C(=O)O)c3)o2)cc1` was tested, and the Potency was inconclusive: 25.1 µM [quencher, side channel, single point]. `Cc1ccc(S(=O)(=O)Cc2cc(-c3ccc(Cl)cc3)no2)cc1` was tested, and the Potency was inconclusive: 39.8 µM [inhibitor, single point]. `CC(=O)Nc1ccc2nc(NS(=O)(=O)c3ccc(C)cc3)sc2c1` was tested, and the Potency was inconclusive: 15.8 µM [quencher, side channel, partial curve]. With `Cc1ccc(C(=O)N2CCN(c3nc4ccccc4n3C)CC2)cc1` the Potency was inconclusive: 12.6 µM [inhibitor, partial curve]. In the case of `COc1cccc(-c2nc(-c3ccccc3)[nH]c(=O)c2C#N)c1`, the Potency is reported as inconclusive: 12.6 µM [quencher, side channel, partial curve].

From PubChem BioAssay AID1768 (National Center for Advancing Translational Sciences (NCATS), 2009)
Potency means the concentration at half of the fitted maximal effect; tags describe the fitted curve by direction and shape or compound fluorescence and quenching.
Wherever FP activity change, negative = inhibition is given: % of control where 0% means no effect.
